Reference: PubChem BioAssay (NCI)
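Growth conditions: 96-well plates. Treatment: test compound, 48 hours, 5 concentrations. Analysis: linear interpolation between bracketing concentrations; unreached endpoints set to highest concentration. GI50: concentration for 50% inhibition of growth.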 Certain results were filed several times, with different values. They are shown here; other results are not. An entry can have further records. For part of these data: The tests behind the records often covered other concentration ranges, which the source does not state; a value can be the end of its range. For part of these data: Values that stand side by side repeat one measurement (runs, samples, wells, individuals or studies). A tag in brackets gives the origin of a value. The letters are not those of the source and start again with each entry.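 Definition used: TGI = concentration required for complete inhibition of growth.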

Legend:
Assay in all cases: DTP human tumour cell line panel, 48 h
SNB-78 CNS = system: SNB-78 CNS
SK-MEL-5 melanoma = system: SK-MEL-5 melanoma
SR leukemia = system: SR leukemia
HL-60(TB) leukemia = system: HL-60(TB) leukemia
SNB-75 CNS = system: SNB-75 CNS
SN12C renal = system: SN12C renal
UACC-62 melanoma = system: UACC-62 melanoma
CCRF-CEM leukemia = system: CCRF-CEM leukemia
RPMI-8226 leukemia = system: RPMI-8226 leukemia
MOLT-4 leukemia = system: MOLT-4 leukemia
COLO 205 colon = system: COLO 205 colon
NCI/ADR-RES ovarian = system: NCI/ADR-RES ovarian
T-47D breast = system: T-47D breast
CAKI-1 renal = system: CAKI-1 renal
A549 NSCLC = system: A549 NSCLC
HOP-62 NSCLC = system: HOP-62 NSCLC
SF-295 CNS = system: SF-295 CNS
BT-549 breast = system: BT-549 breast
786-0 renal = system: 786-0 renal
M14 melanoma = system: M14 melanoma
MCF7 breast = system: MCF7 breast
UACC-257 melanoma = system: UACC-257 melanoma
TK-10 renal = system: TK-10 renal
HOP-92 NSCLC = system: HOP-92 NSCLC
OVCAR-4 ovarian = system: OVCAR-4 ovarian
EKVX NSCLC = system: EKVX NSCLC
LOX IMVI melanoma = system: LOX IMVI melanoma
K-562 leukemia = system: K-562 leukemia

In the case of `CCOC(=O)Nc1ccc2c(c1)N(C(=O)CCN(CC)CC)c1ccccc1S2`, the TGI (SNB-78 CNS) is reported as 9.66 µM and 129 µM.

For `O=C(/C=C/c1cccc(S(=O)(=O)Nc2ccccc2)c1)NO`, the GI50 (SK-MEL-5 melanoma) was 28.9 nM [sample A, mean of 3 tests] and 302 nM [sample B, mean of 5 tests], the GI50 (SR leukemia) was < 15.9 nM [sample A, mean of 2 tests] and 196 nM [sample B, mean of 4 tests] and the GI50 (HL-60(TB) leukemia) was < 44.6 nM [sample A, mean of 2 tests] and 591 nM [sample B, mean of 5 tests]. For the same compound, the GI50 (SNB-75 CNS) was 6.89 µM [sample A, mean of 2 tests] and 295 nM [sample B, mean of 3 tests], the TGI (SN12C renal) was 4.77 µM [sample A, mean of 3 tests] and 71.5 µM [sample B, mean of 5 tests] and the GI50 (UACC-62 melanoma) was < 19.6 nM [sample A, mean of 2 tests] and 296 nM [sample B, mean of 5 tests]. The GI50 (CCRF-CEM leukemia) was < 20.8 nM [sample A, mean of 2 tests] and 257 nM [sample B, mean of 4 tests], the TGI (RPMI-8226 leukemia) was 1.39 µM [sample A, mean of 2 tests] and 47.7 µM [sample B, mean of 5 tests] and the GI50 (MOLT-4 leukemia) was 25.3 nM [sample A, mean of 3 tests] and 307 nM [sample B, mean of 4 tests]. The TGI (COLO 205 colon) was 381 nM [sample A, mean of 2 tests] and 3.97 µM [sample B, mean of 4 tests], the GI50 (NCI/ADR-RES ovarian) was < 22.3 nM [sample A, mean of 2 tests] and 241 nM [sample B, mean of 5 tests] and the TGI (T-47D breast) was > 75.5 µM [sample A, mean of 2 tests] and 7.39 µM [sample B, mean of 5 tests].

For `O=C(/C=C/c1nnc2n(Cc3ccccc3)c(=O)c3c4c(sc3n12)CCCC4)c1ccccc1`, the GI50 (CAKI-1 renal) was 3.3 µM and > 100 µM, the GI50 (A549 NSCLC) was 1.59 µM and > 100 µM and the TGI (A549 NSCLC) was 7.58 µM and > 100 µM. The GI50 (HOP-62 NSCLC) was 7.24 µM and > 100 µM, the GI50 (SF-295 CNS) was 5.49 µM and > 100 µM and the GI50 (BT-549 breast) was 1.96 µM and > 100 µM. For the same compound, the TGI (BT-549 breast) was 4.65 µM and > 100 µM, the TGI (786-0 renal) was 3.23 µM and > 100 µM and the GI50 (M14 melanoma) was 3.84 µM and > 100 µM. For the same compound, the GI50 (MCF7 breast) was 3.8 µM and > 100 µM, the GI50 (UACC-257 melanoma) was 36.2 nM and > 100 µM and the TGI (UACC-257 melanoma) was 2.75 µM and > 100 µM.

In the case of `COC(=O)[C@@H](C)C[C@H](Cc1ccccc1)NC(=O)c1csc([C@@H](C[C@H](C(C)C)N(C)C(=O)C2(NC(=O)[C@H]3CCCCN3C)CCC2)OC(C)=O)n1`, the GI50 (TK-10 renal) is reported as 858 nM and 15.8 nM, the TGI (HOP-92 NSCLC) is reported as 57.2 nM and 6.79 µM and the GI50 (786-0 renal) is reported as 45.4 nM and 3.89 nM. The GI50 (OVCAR-4 ovarian) was 10.2 nM and 909 nM and the GI50 (EKVX NSCLC) was 32.8 nM and > 25 µM.

For `C=C1C(=O)OC2CC1C(OC(C)=O)C/C(C)=C/CC/C(C)=C\CCC2(C)O` (stereo not drawn), the TGI (LOX IMVI melanoma) was > 100 µM [sample A] and 7.1 µM [sample B], the TGI (K-562 leukemia) was > 100 µM [sample A] and 9.78 µM [sample B] and the TGI (CCRF-CEM leukemia) was > 100 µM [sample A, 1 test] and 3.49 µM [sample B, mean of 2 tests].
